PMC12668310, “High‐Throughput Synthesis and Screening of a Cyanimide Library Identifies Selective Inhibitors of ISG15‐Specific Protease mUSP18” (Angewandte Chemie (International Ed. in English), 2025)

How the values were obtained:
[1] = system: cellular ISGylation in SUP-T1 cells (human USP18); test: ISGylation assay in human IFN-β-stimulated SUP-T1 cells; type: cell-based; conditions: 4 h treatment
[2] = biological target: T1, mUSP18 (Mus musculus, UniProt Q9WTV6); test: IC50 determination, fluorogenic ISG15CT-Rho-morpholine activity assay; type: biochemical, murine
T1 construct: (46-368); His-tag (N); made in house
T1 sequence (Q9WTV6 46-368): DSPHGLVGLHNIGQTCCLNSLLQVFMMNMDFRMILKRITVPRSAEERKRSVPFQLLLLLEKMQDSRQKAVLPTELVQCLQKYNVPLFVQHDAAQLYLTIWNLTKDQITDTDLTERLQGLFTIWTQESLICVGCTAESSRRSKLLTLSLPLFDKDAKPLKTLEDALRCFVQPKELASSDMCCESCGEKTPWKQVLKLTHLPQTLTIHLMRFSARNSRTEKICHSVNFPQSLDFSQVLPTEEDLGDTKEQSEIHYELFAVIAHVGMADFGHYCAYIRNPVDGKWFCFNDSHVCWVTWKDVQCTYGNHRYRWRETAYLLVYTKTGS

[3] = system: 41 different recombinant DUBs; test: DUBprofiler selectivity screen (Ubiquigent), Ub-Rho activity assay; type: biochemical; conditions: 250 nM compound, n = 1
Description: Data for mUSP18 inhibition was generated separately in an ISG15CT‐Rho activity assay using the same buffer, compound concentration, and 30 min incubation time.
To gain further insights into the selectivity of BB07CA902 for mUSP18, the compound (250 nM concentration) was tested on a DUB panel comprising 41 different recombinant DUBs, including 22 from the structurally related USP family.
High-throughput screening
The screens were performed at room temperature in “flat bottom, non-treated, black […]
µM. The compounds (10 nL each) were transferred from the 1 mM daughter plates to the […]
Four wells containing DMSO
(10 nL) and four wells containing NEM (10 mM final concentration) were used in each plate […]
solution (1.33x final concentration) was added to each well, followed by incubation for 30 min.
Next, 2 µL of a substrate solution (4x final concentration) was added to each well (Ub-RhoMP[2]
After 1h or 2h incubation the
(§1) The percentage inhibition was calculated for each well using the […]
(§2) Where FIx is the fluorescence intensity of each well, FIpos is the average fluorescence intensity of the positive (NEM) control wells, and FIneg is the average fluorescence intensity of the negative (DMSO) control wells.
Selectivity determination (Ubiquigent)
DUBprofiler assays were performed by Ubiquigent. BB07CA902 was tested at 0.25 µM using 100 nM ubiquitin-rhodamine110 as substrate. […]

[4] = system: 12 Ub(‐like) proteases; test: High-throughput screening, whole panel of twelve enzymes; type: biochemical; conditions: crude mixture, 1.25 µM; enzymes other than mUSP18
Description: Since the in‐plate synthesis was conducted in 1536‐well Echo plates, the compounds could readily be transferred from these plates into 1536‐well assay plates using acoustic liquid dispensing (Figure 2a) and subjected to HTS. We screened the whole 7536 compound library against a panel of twelve enzymes, including three DUBs from the UCH family, two DUBs from the OTU family, five DUBs from the USP family, plus ISG15 protease USP18, and SUMO protease SENP1. Each compound was tested at a single dose of 1.25 µM, assuming full conversion (10 mM in DMSO of the formed products) during the in‐plate synthesis, using the fluorogenic assay described above. […] The compounds are sorted by the amine building blocks (BB1‐16), and within each BB, sorted by carboxylic acid (CA1‐471), thereby providing a comprehensive and systematic overview of the overall inhibition by each BB and CA combination. Some interesting patterns can be obtained from this map. […] Indeed, BB10 is the privileged scaffold for UCHL1 as it originates from UCHL1 inhibitor 5 (Figure 1). […]
as §1, §2

[5] = pure (re-synthesized) compound, mean ± SD n = 3

Structure (SMILES)	accumulation of ISGylation [1]	IC50 ([2]; after 30 min incubation, purified compound, ISG15CT-Rho-morpholine substrate) [nM]	reduction in potency on mUSP18 versus stereoisomer BB07CA902 ([2]; ratio of IC50 values) [fold]	IC50 [2, 5] [nM]	inhibition of DUB panel comprising 41 recombinant DUBs [3]	inhibition of all other enzymes tested [4]
Cc1cc(C(=O)N[C@@H]2C[C@@H]3CN(C#N)C[C@@H]3C2)ccc1C(C)C [BB06CA902]	not increased	11000 ± 830	> 300	–	–	–
Cc1cc(C(=O)N[C@H]2C[C@@H]3CN(C#N)C[C@@H]3C2)ccc1C(C)C [BB07CA902]	–	–	–	35	none of these DUBs was inhibited	–
Cc1cc(C(=O)N[C@H]2C[C@@H]3CN(C#N)C[C@@H]3C2)ccc1Br [BB07CA28]	–	–	–	95 ± 3.7	–	negligible inhibition
